The BET-seq Pho4 binding data (Le et al. 2018)
Some of the results follow. Values were computed here from the reads of four pooled replicates and scatter widely.

biological target: T1, Pho4 (S. cerevisiae) (UniProt P07270); test: relative binding free energy (BET-seq); higher = weaker binding; settings: reference: library average
T1 sequence: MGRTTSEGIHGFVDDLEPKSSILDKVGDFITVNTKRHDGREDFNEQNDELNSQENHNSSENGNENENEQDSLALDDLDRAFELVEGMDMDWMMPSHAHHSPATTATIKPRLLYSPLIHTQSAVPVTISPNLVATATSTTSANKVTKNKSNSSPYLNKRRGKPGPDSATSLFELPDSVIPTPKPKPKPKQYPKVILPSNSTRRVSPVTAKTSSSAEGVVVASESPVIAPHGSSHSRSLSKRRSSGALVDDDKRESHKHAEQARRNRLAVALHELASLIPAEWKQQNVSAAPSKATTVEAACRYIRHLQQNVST

Relative binding free energy, -0.07 kcal/mol:
TTATACACGTGGGGGG
GTGGCCACGTGGTTGT
GGTTGCACGTGGCAGC
TTGTGCACGTGGTGGT
AGGGGCACGTGTGTGT

Relative binding free energy, -0.14 kcal/mol:
CTGAGCACGTGGGGAA

Relative binding free energy, 0.12 kcal/mol:
ATAGGCACGTGAAGGG
ATGGGCACGTGAGAGG
TAGGACACGTGGAATT
ATAGTCACGTGTTTGG
GTGTTCACGTGGGTAC
AGTCTCACGTGGGGGT
TGGGTCACGTGAGCCG

Relative binding free energy, -0.04 kcal/mol:
TGCAGCACGTGTTTTG
TTTTGCACGTGGTTAC
TGGACCACGTGGGCTT

Relative binding free energy, 0.46 kcal/mol:
CTATTCACGTGAGGTT

Relative binding free energy, -0.23 kcal/mol:
ATAGGCACGTGGGAGC
ATTGGCACGTGGTACG

Relative binding free energy, 0.25 kcal/mol:
TGTTTCACGTGGAAAA
GGGCACACGTGAGGTG
ACTTTCACGTGTGATT

Relative binding free energy, 0.02 kcal/mol:
AAGTCCACGTGTGTTG
TAGTGCACGTGGAGCG

Relative binding free energy, 0 kcal/mol:
TTGAGCACGTGGTTTC
AGGGTCACGTGGGCTA
TTCTGCACGTGTAGTT

Relative binding free energy, 0.06 kcal/mol:
AGTTGCACGTGGATCT
CGTTGCACGTGTTTTT

Relative binding free energy, 0.52 kcal/mol:
GACTTCACGTGAGGGA

Relative binding free energy, 0.08 kcal/mol:
ATAAGCACGTGGATGA
GGTAACACGTGTGGAC
ATGGTCACGTGTGTAG
AGGTGCACGTGGATTG
AGTATCACGTGGTTAA
CGGGTCACGTGTAGCG

Relative binding free energy, 0.42 kcal/mol:
TTGATCACGTGACAAG

Relative binding free energy, 0.28 kcal/mol:
TGCTTCACGTGGTGTC

Relative binding free energy, -0.19 kcal/mol:
AGTGGCACGTGCGTGG
ATCGGCACGTGCGTTT

Relative binding free energy, -0.17 kcal/mol:
GGTTGCACGTGGCTCG
CGAGGCACGTGGTAGG
AATGGCACGTGGAAGG
AGGGGCACGTGTGCTG

Relative binding free energy, 0.04 kcal/mol:
GCTGTCACGTGGGGAC
TTCGTCACGTGGGTTC

Relative binding free energy, 0.43 kcal/mol:
GGATTCACGTGAGTGG
TAAGTCACGTGAACTG

Relative binding free energy, -0.2 kcal/mol:
CGGAGCACGTGGGCTG

Relative binding free energy, -0.12 kcal/mol:
CTCGGCACGTGTAGGG
CGGTGCACGTGGATGT
ATTGGCACGTGGGAAA

Relative binding free energy, 0.15 kcal/mol:
TCCGTCACGTGTGGTG
GGGTACACGTGGTTGA

Relative binding free energy, 0.23 kcal/mol:
TAGCTCACGTGTTGTT
AATTTCACGTGTAGCG

Relative binding free energy, -0.02 kcal/mol:
TGAAACACGTGGGCTG
TCCGGCACGTGTATGG

Relative binding free energy, 0.34 kcal/mol:
TGGGACACGTGAAAAT
GTGTGCACGTGAGTGA

Relative binding free energy, 0.19 kcal/mol:
AGATTCACGTGGGTGT
TTTATCACGTGTGATA
GCTGACACGTGTGTGA

Relative binding free energy, 0.2 kcal/mol:
TATAGCACGTGAATGA
GGATGCACGTGTGTCG
AATTTCACGTGTAGGG

Relative binding free energy, 0.14 kcal/mol:
GATGTCACGTGGTGTT
TAGAGCACGTGGAGTT
GTTACCACGTGTTTTA

Relative binding free energy, 0.13 kcal/mol:
GAGGGCACGTGTAGTT
GGTGTCACGTGTCAGT
GTTTCCACGTGGCGTT
TTTTGCACGTGAATTA
TACATCACGTGTGTTG
TACGTCACGTGTTAGA

Relative binding free energy, 0.24 kcal/mol:
GGGATCACGTGTGTCG
TGTTTCACGTGGCAAT

Relative binding free energy, 0.16 kcal/mol:
TGGAACACGTGTGTGC
GTTTTCACGTGGAATA
GTGGGCACGTGAAGAG
ATGGTCACGTGTCGTG

Relative binding free energy, -0.08 kcal/mol:
CGTCGCACGTGTGGGC
GTTGGCACGTGCTAAT
GCAGGCACGTGGTTGG
TGTCGCACGTGTTAAT
TTAGGCACGTGACTGT
GGAAGCACGTGGTTGT
GGGCGCACGTGGGTCA
TAAGACACGTGCGGGG

Relative binding free energy, 0.32 kcal/mol:
GGGATCACGTGGAAGA

Relative binding free energy, 0.01 kcal/mol:
CTGGGCACGTGGATTT
TAAGGCACGTGTAAGA
TTTGCCACGTGTTTAG
TTTGACACGTGTATTC
CATATCACGTGGTGTG
GGATGCACGTGGTGAT
AGGAACACGTGTTCGT

Relative binding free energy, -0.15 kcal/mol:
TGATCCACGTGGTAGG
TAGTGCACGTGCCGGT

Relative binding free energy, -0.05 kcal/mol:
ATAGCCACGTGTTGAG
CGGGGCACGTGTAGCA
GGGTGCACGTGGTTCA
GGTGGCACGTGGAGGG
TTTGACACGTGGTTTT

Relative binding free energy, 0.3 kcal/mol:
ATTGTCACGTGAGTTT

Relative binding free energy, -0.13 kcal/mol:
CGTGGCACGTGGTAGA
GTGCGCACGTGGTTTT
TATGGCACGTGGCGAT

Relative binding free energy, -0.11 kcal/mol:
ATCGCCACGTGGGGAT
ATTGACACGTGCAGTT
TAATACACGTGGGCGG
GTTAGCACGTGGTGTG
GGAAGCACGTGGGAGA
TGGAGCACGTGCAATG

Relative binding free energy, 0.07 kcal/mol:
TGGTGCACGTGTGTAG
ATCGACACGTGTTTGT
AGTGACACGTGATATG
TATTACACGTGTAGCT
TGTGCCACGTGTGATG
AGGGACACGTGTGGGT

Relative binding free energy, 0.03 kcal/mol:
GGTGGCACGTGAGCTA
TTCTGCACGTGGGCAT
CGAGGCACGTGTGATT
TTAATCACGTGGTTTC
TACGACACGTGTGTTG
ATTATCACGTGGGTCA

Relative binding free energy, 0.05 kcal/mol:
TGTAACACGTGGATGC
GCTGTCACGTGGTAGG
TTTATCACGTGGGTTG
TTTTGCACGTGACGAT
CGAGTCACGTGGGTTT
TGGAACACGTGTGAAG

Relative binding free energy, 0.18 kcal/mol:
AGTTTCACGTGTCTGT
TTTAGCACGTGGAACT
TGAGTCACGTGATGCG
AGCGGCACGTGAAGTG
GCGTGCACGTGAGTTA

Relative binding free energy, -0.09 kcal/mol:
TAGGCCACGTGGAGTT
ATGGGCACGTGTGATC
CTGGGCACGTGCAGTG

Relative binding free energy, 0.1 kcal/mol:
ATTGTCACGTGTGCGA
TTTAACACGTGTACTG
TTTCGCACGTGTGATT
TGCATCACGTGATTGT
AGCATCACGTGTTGTG
CATGTCACGTGGTTAA
CGTGTCACGTGTAGCT
TTGTACACGTGGTATC
TTAAACACGTGTAGGT
CGTTGCACGTGGAATG
AGCGGCACGTGAATTG

Relative binding free energy, 0.44 kcal/mol:
TATTACACGTGAAAGT
ATGTTCACGTGAGATG

Relative binding free energy, -0.1 kcal/mol:
TGAGGCACGTGGTACT
GTGTGCACGTGGTGTG
ATAGACACGTGTTGTC
TTGGCCACGTGGTTAA

Relative binding free energy, -0.22 kcal/mol:
TATAGCACGTGGAGTG
AGCCGCACGTGGGAGG
TGTAGCACGTGGCAAG
CTTCGCACGTGGGGGG
GGTGGCACGTGGTACA

Relative binding free energy, 0.45 kcal/mol:
GGTTTCACGTGCTGGG

Relative binding free energy, 0.37 kcal/mol:
GGTTTCACGTGTCAGG
GTGGTCACGTGATGAA

Relative binding free energy, -0.24 kcal/mol:
CTGGCCACGTGGGTGG

Relative binding free energy, 0.22 kcal/mol:
TTTTCCACGTGAGGAT

Relative binding free energy, 0.36 kcal/mol:
TTGCTCACGTGAGTTG
GGGTTCACGTGCAATT

Relative binding free energy, 0.26 kcal/mol:
GATTCCACGTGTAGTT
GGAGACACGTGATTGG

Relative binding free energy, 0.31 kcal/mol:
AAGTACACGTGAGGGA

Relative binding free energy, 0.33 kcal/mol:
AGTCTCACGTGGAGAG

Relative binding free energy, -0.18 kcal/mol:
GGAGGCACGTGCGTGA

Relative binding free energy, 0.17 kcal/mol:
TGGATCACGTGGATAG
CTATTCACGTGTGGTT
GTGTCCACGTGTGGTC
AGTCTCACGTGTTGGA
GACTGCACGTGTGGGA

Relative binding free energy, -0.27 kcal/mol:
ATGAGCACGTGCGTGG

Relative binding free energy, 0.39 kcal/mol:
CTCTTCACGTGTGGTT
TGGTTCACGTGATTAA
GGCTCCACGTGAGAGG

Relative binding free energy, -0.21 kcal/mol:
CTTGGCACGTGGGACG
AGGGGCACGTGGTCTG

Relative binding free energy, -0.06 kcal/mol:
GAGGGCACGTGCGTTT
TTGGGCACGTGTTGAT
GGGTGCACGTGCGTGA
GCTGTCACGTGGCGGG
CTAGGCACGTGTTGTG
GTGGGCACGTGTCTAG
TGGCGCACGTGACGTG

Relative binding free energy, -0.26 kcal/mol:
GAGAGCACGTGGGGTA
GCCGGCACGTGGGTGG

Relative binding free energy, 0.09 kcal/mol:
TTGAACACGTGCTTTG
TGGGGCACGTGAATCG
CTTAACACGTGATTGG
GGTCACACGTGTGGCG
TTCGGCACGTGAGTGG
GTCTACACGTGGGCTT
ATGTCCACGTGGTTAT
AATTTCACGTGGCGTT
GAAGTCACGTGTGGTA

Relative binding free energy, 0.21 kcal/mol:
TCGTTCACGTGGGATG
TGGGTCACGTGTTTAT
AAAATCACGTGGGGTC
TTTTACACGTGGAGTA

Relative binding free energy, -0.03 kcal/mol:
TTTGACACGTGGAGGA
GTGACCACGTGGTGGC
TTTTGCACGTGGGACT
TGGCGCACGTGGATAG
TTCGGCACGTGTTCTT
CGTTGCACGTGATGTA
AGGAGCACGTGGTAAT

Relative binding free energy, -0.01 kcal/mol:
GTTAGCACGTGCATGT
TTGAGCACGTGTTTGG
AGTTGCACGTGCTTTG

Relative binding free energy, 0.27 kcal/mol:
AGGCTCACGTGTTTGG
GAGATCACGTGTGTGA
GGGATCACGTGTGAAT
AGGTTCACGTGTGAAG
GTAAACACGTGTAGCT
TGGATCACGTGAGGGA
AAGTGCACGTGTAATA
ACCTTCACGTGTTGTT

Relative binding free energy, 0.11 kcal/mol:
GGCATCACGTGTGTGG
CTATGCACGTGAGTTT
TATTACACGTGTACGG
GGGGACACGTGTATAT
TTTGGCACGTGACGGC
